Assay results reported in PubChem BioAssay AID1347417 (National Center for Advancing Translational Sciences (NCATS), 2020).
The campaign covered roughly 120,000 compounds. About 5,300 (4.4%) were called active. The shares of active, inactive and inconclusive entries below differ from those in the screen. Calls follow the shape of the dose curve; as a rule, active = well fitted inhibition curve with a large enough effect; inconclusive = small, poorly fitted or top-dose-only effect; inactive = no such curve, though single readings can be large or run the other way. Potencies beside an inconclusive call are fits to weak or partial responses and may not hold up.
Potency is read from the fitted curve at half-maximal effect; tags tell the direction and shape of the fitted curve.

Test: qHTS Primary assay for Inhibitors of Plasmodium falciparum Dd2 growth in vitro; also: nearly all actives have a fitted effect of over 65% in size;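 as to activity, negative = inhibition: plate controls were DMSO vehicle for no effect and reference drug for full effect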
Conditions: P. falciparum Dd2 growth, SYBR Green, 72 h; activity, negative = inhibition: at 28.9 µM (top of the series) unless noted; series mostly up to 28.9 µM
How it was run: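 Infected erythrocytes (Dd2, 0.3% parasitemia, 2.5% hematocrit final) are added to compound in RPMI-1640/Albumax II medium, grown 72 h at 37C in low oxygen, then lysed with saponin/Triton-X containing SYBR Green and read by fluorescence.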
For `COc1ccc(C(=O)N2CC[C@@H](CC(=O)O)[C@@H](CCN(CCN3CCOCC3)c3ccccc3)C2)cc1`, the “activity, negative = inhibition” value was inactive: -5.94%. For `CCc1ccccc1NC(=O)c1cc(S(=O)(=O)N2CCCc3ccccc32)ccc1F`, the Potency was inconclusive: 17.8 µM [inhibitor, single point]. For `Cc1nn(C(=O)CCCC(=O)N2CCC(Cc3nncn3C)CC2)c2ccccc12`, the Potency was inconclusive: 15.8 µM [inhibitor, single point]. With `O=C1c2cnc(-c3cccc(O)c3)nc2OCCN1Cc1ccc(F)cc1F` the Potency was inconclusive: 0.631 µM [inhibitor, partial curve, poor fit]. In the case of `Cc1cccc(C(=O)N2CCC3(CC2)CC(CC(=O)NC2CC2)CCO3)c1` (stereo not given), the “activity, negative = inhibition” value is reported as inactive: 22.4%. With `COc1cccc(S(=O)(=O)N2CCC(CC(=O)NCc3ccccc3)C2)c1` (stereo not given) the “outcome” value was “inactive”. With `O=C1CCN(S(=O)(=O)c2ccccc2)CCCN(C(=O)c2cccc3[nH]ccc23)CCN1` the Potency was inconclusive: 17.8 µM [inhibitor, single point]. With `COc1ccccc1-n1c(-c2ccc(C)cc2)cn2c3c(=O)n(C)c(=O)n(C)c3nc12` the Potency was inconclusive: 10 µM [inhibitor, single point]. For `COc1ccccc1CNC(=O)C[C@@H]1CCNC[C@@H]1Cc1cc(-c2ccccc2)on1`, the Potency was inconclusive: 0.355 µM [inhibitor, full curve, poor fit]. With `COC(=O)[C@H](Cc1ccc(OC)cc1)NC(=O)[C@H]1CN(C(=O)c2ccc(N(C)C)cc2)CCN1S(=O)(=O)c1ccccc1` the Potency was inconclusive: 7.94 µM [inhibitor, single point]. For `O=C(c1ccccc1)N1CC[C@H](c2nc3ccc(F)cc3[nH]2)C1`, the “activity, negative = inhibition” value was inactive: -9.4% [at 44.1 µM]. In the case of `CCOc1ccccc1CN1CCCCCNC(=O)CC1c1ccccc1` (stereo not given), the Potency is reported as active: 7.94 µM. With `COc1ccc(CCNC(=O)c2ccc3c(c2)N(Cc2ccc(F)cc2)CCS3)cc1OC` the Potency was inconclusive: 7.94 µM [inhibitor, partial curve]. In the case of `O=[S+]([O-])(c1ccccc1)N1CC2(CCCN2Cc2cccnc2)Cc2ccccc21` (stereo not given), the Potency is reported as active: 11.2 µM. With `COCc1nc(CCN)no1` the “activity, negative = inhibition” value was inactive: -11.4%. For `COc1ccc(-c2cc3nc4c(c(=O)n3[nH]2)CN(C(=O)Cc2ccccc2)CC4)cc1`, the Potency was inconclusive: 2.51 µM [inhibitor, partial curve, poor fit]. For `CC(C)n1cc2cc(C(=O)NCCc3ccncc3)sc2c1`, the “activity, negative = inhibition” value was inactive: -6.77%. In the case of `CC1(c2ccccc2)N(Cc2cccnc2)C(=O)OC12CCN(Cc1ccccc1)CC2` (stereo not given), the Potency is reported as inconclusive: 0.631 µM [inhibitor, full curve]. For `CCN1CCCC2(Cc3ccccc3CN(C(=O)c3ccccc3)C2)C1` (stereo not given), the Potency was active: 10 µM. For `Cc1ccc(C(=O)Nc2cccc(-c3nnc4n3CCCC4)c2)c(C)c1`, the Potency was inconclusive: 2.51 µM [inhibitor, full curve, poor fit]. For `CC(C)CN1Cc2ccccc2-n2ccnc2C12CCN(C(=O)c1ccccn1)CC2`, the Potency was inconclusive: 1.58 µM [inhibitor, partial curve]. With `CCc1noc(-c2cccn3c(CNC(=O)c4ccc(OC)cc4)nnc23)n1` the Potency was inconclusive: 0.447 µM [inhibitor, partial curve, poor fit]. With `CCn1cc(S(=O)(=O)N2CCC3(CC2)CN(C2CCC2)CC3COC)cn1` (stereo not given) the Potency was inconclusive: 11.2 µM [inhibitor, single point]. For `c1ccc(CN2C[C@@H]3CC[C@H](C2)N(Cc2ccc4nsnc4c2)C3)nc1`, the Potency was inconclusive: 8.91 µM [inhibitor, partial curve, poor fit]. In the case of `CCN(CC)CCNC(=O)C1CCCN(S(=O)(=O)c2ccccc2)CCC(=O)NCC1` (stereo not given), the Potency is reported as inconclusive: 0.891 µM [inhibitor, full curve, poor fit]. For `N#Cc1ccc(CN2CCCCCCNC(=O)[C@@H]3C[C@@H](C(=O)NCCc4cnc[nH]4)C[C@@H]32)cc1`, the Potency was inconclusive: 4.47 µM [inhibitor, partial curve, poor fit]. For `CN1CCN(C(=O)c2ccc(CC3CCN(S(C)(=O)=O)CC3)cc2)CC1`, the “activity, negative = inhibition” value was inactive: -5.49%. In the case of `COc1ccccc1-c1cc2nc(C)c(CCC(=O)NCc3cccc(Cl)c3)c(C)n2n1`, the Potency is reported as inconclusive: 8.91 µM [inhibitor, single point]. For `CCCC(=O)N1Cc2ccccc2CC2(CCCN(C)C2)C1` (stereo not given), the Potency was inconclusive: 8.91 µM [inhibitor, partial curve, poor fit]. With `O=C(C1CCCC1)N1CC2(CCCN(C3COC3)C2)Cc2ccccc21` (stereo not given) the Potency was inconclusive: 11.2 µM [inhibitor, single point]. With `CCCCn1c(C(C)NC(=O)c2ccccc2)nc2ccccc21` (stereo not given) the “outcome” value was “inactive”. In the case of `NC(=O)c1cc(-c2ccccc2F)cc2c1OCCN2Cc1cccnc1`, the Potency is reported as inconclusive: 2.82 µM [inhibitor, partial curve, poor fit]. With `CCN(CC)S(=O)(=O)c1ccc2c(c1)c(=O)c(C(=O)N1CCN(c3cccc(C)c3)C(C)C1)cn2C` (stereo not given) the Potency was inconclusive: 11.2 µM [inhibitor, single point]. For `COc1cc(F)ccc1-c1nc(N2CCOCC2)cc2c1CN(CC(F)(F)F)C2=O`, the “activity, negative = inhibition” value was inactive: -24.9% [at 44.1 µM]. With `CN(C)S(=O)(=O)N1CCn2nc(CN3CCCOCC3)cc2C1` the “activity, negative = inhibition” value was inactive: 0.987%. With `COC1CCN(c2cc(-c3cccnc3)nc3c(C)noc23)CC1` the “activity, negative = inhibition” value was inactive: -22.8% [at 44.1 µM]. In the case of `O=C(NC1CC1)C1COC2(CCN(C(=O)c3cccc([N+](=O)[O-])c3)CC2)N1C(=O)c1ccccc1` (stereo not given), the “activity, negative = inhibition” value is reported as inactive: -1.53%. With `O=C(CC1=C2CCCCC2N(Cc2ccccc2)C1=O)N1CCc2ccccc2C1` (stereo not given) the Potency was inconclusive: 10 µM [inhibitor, single point]. In the case of `CCCc1noc(-c2ccn3c(CNC(=O)c4ccc(CC)cc4)nnc3c2)n1`, the Potency is reported as inconclusive: 1.78 µM [inhibitor, single point]. In the case of `C[S+](=O)([O-])N1C2CCC1CN(c1ccc(C(F)(F)F)cc1)C2`, the activity, negative = inhibition is reported as inconclusive: -117% [inhibitor]. With `CN1c2cc(C(=O)Nc3cccc(F)c3)ccc2C(=O)N2CCCCC21` (stereo not given) the “activity, negative = inhibition” value was inactive: -11.4%. For `CCOCCCNC(=O)c1c(NC(=O)Cc2coc3c(C)c(C)ccc23)sc2c1CCC2`, the Potency was inconclusive: 11.2 µM [inhibitor, single point]. For `CCc1ccc(NC(=O)Cn2ccn3nc(-c4ccccc4)c(CO)c3c2=O)cc1`, the “outcome” value was “inactive”. In the case of `CC1CCN(C(=O)C[C@@H]2c3nc(NC(=O)c4c(F)cccc4F)sc3C[C@@H]3[C@](C)(CO)[C@H](O)CC[C@]32C)CC1`, the Potency is reported as inconclusive: 1.41 µM [inhibitor, partial curve, poor fit]. In the case of `CCOC(=O)C1(Cc2ccc(F)cc2)CCCNC1` (stereo not given), the Potency is reported as active: 2.82 µM. With `CC1CCN(CC2CCCN(C(=O)CC3CCCC3)CC2)CC1` (stereo not given) the Potency was inconclusive: 10 µM [inhibitor, single point]. For `CN(Cc1ccccn1)Cc1cccn1C`, the Potency was inconclusive: 39.8 µM [inhibitor, single point]. In the case of `CCc1nc(-c2c3n(c(=O)n(CC(=O)Nc4cc(C)ccc4C)c2=O)CCCCC3)no1`, the “outcome” value is reported as “inactive”. For `Cc1cccc(NC(=O)C2CCC(CNS(=O)(=O)c3ccc4c(c3)CCCC(=O)N4)CC2)c1C` (stereo not given), the Potency was inconclusive: 20 µM [inhibitor, single point]. With `COCCC(=O)N[C@H]1CC[C@]2(C)CC[C@@H](C(C)C(=O)NC3CCCCC3)[C@H](O)[C@H]2[C@@H]1C` (stereo not given in full) the “outcome” value was “inactive”. For `CN1C[C@H](C(=O)Nc2ccccc2)C[C@H]1c1cccc(C(F)(F)F)c1`, the Potency was inconclusive: 22.4 µM [inhibitor, single point]. In the case of `Cc1cc(CN2CCn3c(nnc3-c3ccccc3)C2)no1`, the activity, negative = inhibition is reported as inconclusive: -30.5% [inhibitor]. With `O=C(Nc1ccc(C2(C(=O)NCc3ccc(F)cc3Cl)CCC2)cc1)C1CC1` the “activity, negative = inhibition” value was inactive: -3.78%. With `COc1ccc(C(C)NC(=O)c2ccc(Cn3ccn4nc5c(c4c3=O)CCCC5)cc2)cc1OC` (stereo not given) the Potency was inconclusive: 0.501 µM [inhibitor, partial curve, poor fit]. With `CCc1ccccc1Nc1nn2c(=O)c3ccc(C(=O)NCCc4ccccc4)cc3nc2s1` the Potency was inconclusive: 17.8 µM [inhibitor, single point]. For `Cc1cnc(-c2cccnc2)n1C1CCN(S(=O)(=O)c2cccc(F)c2)CC1`, the Potency was inconclusive: 12.6 µM [inhibitor, single point]. In the case of `NC(=O)c1c(NC(=O)c2noc3c2CCCC3)sc2c1CCCC2`, the Potency is reported as inconclusive: 12.6 µM [inhibitor, partial curve]. With `Cn1cnc(S(=O)(=O)N2CCCN(C(=O)c3ccncc3)CCNC(=O)CC2c2ccccc2)c1` (stereo not given) the “activity, negative = inhibition” value was inactive: -0.571%. With `CCC(=O)N(C1CCOCC1)C1CCN(Cc2cccc(Cl)c2F)CC1` the Potency was inconclusive: 20 µM [inhibitor, single point]. In the case of `CCOc1ccc(CCNC(=O)C2CCCN(c3nnc(C)c4c(C)n(-c5ccccc5)nc34)C2)cc1` (stereo not given), the Potency is reported as active: 7.94 µM. For `CCOC(=O)c1c(C)n(-c2ccccc2)c2ccc(OC(=O)c3ccccc3Cl)cc12`, the Potency was inconclusive: 10 µM [inhibitor, partial curve, poor fit]. With `CCC1=C(C(=O)OC)C(c2cccc(F)c2)N2C(CC(=O)NCc3cccc(F)c3)=CSC2=N1` (stereo not given) the Potency was active: 2.51 µM. For `CCN1CCN(Cc2cc(C)cc(CN(C)Cc3ncc(C)[nH]3)c2C)CC1`, the Potency was inconclusive: 17.8 µM [inhibitor, single point]. In the case of `O=C1c2cc(N3CCOCC3)nc(-c3ccccc3)c2CN1Cc1ccccc1`, the Potency is reported as inconclusive: 1.26 µM [inhibitor, full curve]. In the case of `O=C(NC[C@H]1C[C@@H]2CCN1C[C@@H]2CN1CCCCC1)c1ccc(C(F)(F)F)cc1`, the Potency is reported as inconclusive: 3.98 µM [inhibitor, single point].
